Common to all, as to test: cell count relative to DMSO control; melanoma cells; higher = more viable cells
Common to all, as to details: library dose: low library concentration; 72 h

Experiment [1] concerns WM115.
Experiment [2] has as its system WM1716.
The subject of experiment [3] is WM1745.
Experiment [4] deals with WM3526.
In experiment [5] the test system is WM3619.
Experiment [6] concerns WM451Lu.

This is one part of the list. Single values are uncertain, as repeats are few or missing.
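Further: cell number obtained by counting DAPI-stained nuclei in high-throughput microscope images with image analysis software, screen run in 1,536-well plates.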

Consider `CN(C)S(=O)(=O)c1ccc2c(c1)/C(=C/c1cc3c([nH]1)CCCC3)C(=O)N2` + N#Cc1c(O)c2c(-c3ccc(-c4ccccc4O)cc3)csc2[nH]c1=O [A769662] (first compound 0.4 µM, partner dose 2 µM), for which the cell count is 85.9% in experiment [1]; 114% in experiment [2]; 80.3% in experiment [3]; 94.6% in experiment [4]; 119% in experiment [5]; 100% in experiment [6].

Take `NC(=O)Nc1cc(-c2cccc(F)c2)sc1C(=O)N[C@H]1CCCNC1` + OCCn1cc(-c2cnc3nnn(Cc4ccc5ncccc5c4)c3n2)cn1 [PF04217903] (first compound 0.02 µM, partner dose 1 µM): the cell count in experiment [1] turned out to be 93.1%; in experiment [2], 108%; in experiment [3], 88.3%; in experiment [4], 76%; in experiment [5] it was 36.7%; in experiment [6] it was 88.3%.

As to `CN(C)S(=O)(=O)c1ccc2c(c1)/C(=C/c1cc3c([nH]1)CCCC3)C(=O)N2` + O=C(O)c1ccc(-c2c[nH]c3ncc(-c4ccccc4)cc23)cc1C1CCCC1 [GSK650394] (first compound 0.4 µM, partner dose 0.16 µM), the cell count was 84.3% in experiment [1]; 116% in experiment [2]; 101% in experiment [3]; 91.5% in experiment [4]; 117% in experiment [5]; 87.4% in experiment [6].

Take `NC(=O)Nc1cc(-c2cccc(F)c2)sc1C(=O)N[C@H]1CCCNC1` + Cc1cc([N+](=O)[O-])ccc1NS(=O)(=O)c1cc(Cl)ccc1Cl [FH535] (first compound 0.02 µM, partner dose 1 µM): the cell count worked out at 81.4% in experiment [1]; 83.8% in experiment [2]; 112% in experiment [3]; 84.3% in experiment [4]; 66.6% in experiment [5]; 98% in experiment [6].
